From paper PMC10726135
Some of the results follow. At the low end of the ranking, values are background and their order means little. The protein was read in a cell extract, so binding may be indirect.

What follows are sequences tested against T1, HNF4alpha8 (COS-7 nuclear extract) (UniProt P41235-5) (assay: protein-binding microarray). Conditions: COS-7 nuclear extract on double-stranded Agilent 4x180k PBM; binding buffer, salt, pH and temperature not given; high values mean tight binding; double strand, one strand shown; sequences stand for … in …GCCTAGGGAGATTAGAGTATCGGTCGA.
T1 sequence: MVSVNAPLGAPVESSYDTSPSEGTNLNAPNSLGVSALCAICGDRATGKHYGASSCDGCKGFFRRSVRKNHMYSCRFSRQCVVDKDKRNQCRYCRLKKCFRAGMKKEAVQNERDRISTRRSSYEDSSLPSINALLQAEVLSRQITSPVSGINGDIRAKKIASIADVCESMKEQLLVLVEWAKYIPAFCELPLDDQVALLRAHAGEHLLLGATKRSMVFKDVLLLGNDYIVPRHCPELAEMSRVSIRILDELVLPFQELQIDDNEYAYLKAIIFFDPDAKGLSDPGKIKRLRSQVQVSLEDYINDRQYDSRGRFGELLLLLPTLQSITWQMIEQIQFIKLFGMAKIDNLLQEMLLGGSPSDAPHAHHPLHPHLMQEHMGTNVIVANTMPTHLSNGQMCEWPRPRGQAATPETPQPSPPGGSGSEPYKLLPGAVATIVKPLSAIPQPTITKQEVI

Row | Sequence | binding signal (log2 normalized intensity)
1 | ATGATAAGTAGACAGATCAGAGAGATTTTC | -1.28
2 | CAACTAGAGATAAACTTTTGATTGCTTAGG | -1.33
3 | CAAGCAAAAGCCAAGGCATCTGGGGGCTTG | -1.14
4 | AAGTCTTTGTTCCTAGCCACCATGCTCGGC | -1.33
5 | TCTGGCCTGACCCCCTCCTCACCCCACTTT | 5.23
6 | CGTGGTGGATGGGGGAGGGGACTTCGCTGG | -1.3
7 | TGTTATCTTTTCAAGGATGTTTATACAGCC | 1.27
8 | GATGAATCCACAAAGATAAGAAAAAAACAG | -1.31
9 | CTTTAATTACCTGTTCTAAGCACCTCTGCT | -1.01
10 | AACTATGTTTATCAGAGCAAAGTTCAATTT | 5.19
11 | TAAACCTAGCTACTAGCCATTTCGGCACCT | -1.49
12 | CTGCTCTCAGCTCCTAAAGGCAGCCCCTTA | -1.33
13 | GAGTTCCAAAGTCCATGTTCATAACTGTTA | 5.37
14 | GTGGAGACACTGCCAGTGTCTCAGGGAGCT | -1.34
15 | AGCATATGTTGACCCGAGTGCCCTTTGGCA | 5.32
16 | TTCAAAGAAGCTGTTGGAAAGGGCACTGAT | 0.663
17 | GATTAAAGGAGAACTGAGTAGGAGAATGTT | -1.17
18 | AAGCCCAAGGGATCGTCCAAATACCTAGCT | -1.35
19 | GAATTTTCTCATCCGCTAATGACACCAGGG | -1.26
20 | CCCCCAGAGCCCCGTGTCTCCCTACCTCTG | 3.76
21 | GCAAGATTAAGATCAAAGAATTCCTAATAA | -1.42
22 | CAAGAATTTAAGAGAACTAGAGATAAGGTA | -1.36
23 | TATATTTGTGCAAGAATGCGTCATCCGCAT | -1.04
24 | CTCTAACCACTTTGAAATAGTGACCTCTGC | 5.01
25 | ACATTCTTCAATATCAGTGGCACTCTCTGG | 1.15

Row | Sequence | binding signal (log2 normalized intensity)
26 | TCCCCTCCCAAGGCAGCAATCCCCTGCAAT | 4.91
27 | CTCTGTGCTCCCAGTTCCCTCATTAGTAAC | 0.334
28 | AGCCTGCCTGCTCCTCCTCGTGAGTTGGAG | -1.32
29 | ATTAGCTTCTGTTCAGGAGTTGTCTGTCCA | 1.39
30 | ACAGATGGTGTTAAATCCTATCCTAGGGTT | 0.667
31 | CACAGAGGGAAATGCAAACATTTCTGGAAT | -1.29
32 | GATTAGAAGATAGCTTTAAAGACCAAAGAT | -1.38
33 | ATTAGTAGCAATACTTTCAGCTAGCTGAGT | -0.294
34 | ACAAAAAGCGGACAAACCAGTCCCATCTGT | -1.33
35 | CTTCAGCACCTTTTAAAATAGATAAGTCCC | -0.0887
36 | ACCCACCAACAAAAGAAAGCCCATTAAATC | -1.33
37 | TTGCCACATTTATTGTGAGATTACGTAAGT | 1.55
38 | CAATGCAAATCCCAGAGTTCAAAGGCCAAA | 5.12
39 | AAATTACACTGGGAGGCAAATCTCTTGGTC | 0.296
40 | TGAATGATCAAAGGTTGGTTTTTGGAGACA | 3.36
41 | GGATGAAGGAAGAGGGAAGACCAAAGGCCA | -1.36
42 | TACACTCGCCGTGTGACTGAGGGCTGACAT | -1.23
43 | CTTTCAGAAGGGGACAAGCACATTAGGAGG | -1.35
44 | AGCAACCAGAATGTTCAAAAGTGTGTTGGT | 1.48
45 | CAGCGAAGCTGTGTCAGGCATTGTACTCAC | 1.41
46 | ATGCCTTAAGGGACCTCTTAGAAAAGTAGA | -0.345
47 | TGGATAGTGCCTTTTCTAATATCTACATGT | 1.61
48 | AGTCTAACCCAACTAAGAACACAGTCATTT | -0.136
49 | TCCAGGCTTGGAGCCCCTTTGGAGGGGAAG | -1.25
50 | TTTCTCCAGTGCCCTTAGGGGCCGCATTGA | 0.395

Row | Sequence | binding signal (log2 normalized intensity)
51 | TACTCACACTCAAGGCAAGAGAGTCATAAA | -0.837
52 | AAGTCCAATCTTCTGGCCCCATCTATCTAG | 1.64
53 | CACCTCCTTTGACCTGGGAATTCAAGGAAT | 0.319
54 | CAGGACACTTCTGAAAAAAATATTGAACAA | -1.1
55 | ACTGTTGCATCAAACAGCTTAGGGTTCAAA | 2.7
56 | AACAAGGTATGAGGCCAGTTTTCCTAAGGG | -1.36
57 | GCTCCAGAGAGCCAGATGAAGCTGCAGCCT | -1.17
58 | TGTCTCAGCCCAAGATCAAAAGGCAGAGAG | -1.33
59 | TCGCCCTCCGTCGTGGCCTGGCGTGGATTC | 0.159
60 | TTTGGCTGTAGAAAGACTAAAGTTCAGGAG | 2.29
61 | GGAGGTCTGCACAAAATACAAGTCGTAAAG | -1.34
62 | ATTGCACCCTTCCCTAAGATTTATCCCAAA | 1.2
63 | GAAGTATTTATTGAGCACACACTCTTCGAA | -1.23
64 | CTGACTGTGTCTGTTTACCCACTTGGGGTT | 1.36
65 | ATATGCACTTGCCCTTTGGTAATCCTGCTC | 3.05
66 | TGTGCCGGGTATGTGGGGCGTGTGTTAGAC | 1.56
67 | GTTTTGTCTTCTGTTTGCAAATGGATGAAT | 1.81
68 | AAAGGGACTCATCTCCAAACGAGACTTTGG | 2.23
69 | CCAGTTCTTTTGACCTTTGCCTCATTCTTA | 7.02
70 | TGTTGCGTAAGGGTCTGACCTGGCTGCTTG | 1.36
71 | TATCTTTGGAGAATGCCTTTTGTGTAGGAG | 1.69
72 | CAGTGTGTTGCATGCCACAGCGCCCTCAGT | 0.8
73 | AAAGAAGCAAAGGTTGGCTAAAGATAACCT | -1.23
74 | TCTAGGAGCCTGGACATTTGCCACCAATGC | -1.27
75 | TGGGCAGGCTCCCTCCCTGGGAGGCAGGAC | -1.33

Row | Sequence | binding signal (log2 normalized intensity)
76 | ATCTGCGAAATGGGGATAAACACCCCCATC | 0.531
77 | GGAAAGCACAGCTGATTGCTCAACCCAAAG | -1.36
78 | TGAGACATTTTGTCTTTTCTCCCCTGACTA | 2.66
79 | AGGCCCACACCCCTGGGGAAGGCAGGTCTC | -1.32
80 | CCTGAGAGGGCTCAAGGTCTGCATGCCATT | -0.212
81 | TCCCCCAACTTACTTAGTGGCTCCTAGAAT | -0.204
82 | ACCTGAGAACAAACAATGGTTTGGGACAAA | -1.12
83 | TCACAGGTTCCAGCATGGACTTCACAGCCT | 1.02
84 | AAGGTTATTATATTGTGGGTTCTTGCCCTT | 3.46
85 | ACAAGCCAGGTGTGCAGAGAGCAAACGAAC | -1.27
86 | GGTCCGGCCCGACTCACGACCCCGCGGGAC | 1.2
87 | CCCCCCAAGTTGAAGCCATCCTCCCACCTC | 5.73
88 | GCATTTCTGGACTTGGATCAGCCTGATTGA | 2.43
89 | ATCTAGAGACACTATGTGCATTCCAAGGCT | -1.36
90 | GAGAGGGATAAAAGGGGAAAAGGTCAAATA | 3.21
91 | CTTGCTAAGTATAAAGTTAAGACCTACATT | -1.35
92 | CGACCTCATGAGTAGAGAGCAATCATGGGC | -1.29
93 | AAAGGTGAGTATGAGTAGGCTGTAGAGGAG | -1.09
94 | TCTCTCACCAGAAAAATGTACATGTGCAAA | 1.61
95 | GGATTCAGATCCAGTGGACTCTCTGTTTGA | 2.91
96 | AACTCCTTGAGAAGTACAACTTCAGCAATG | -1.33
97 | GAGAGCTGTCTGCTGAGGATGTGGCCCCGA | 2.38
98 | CAAGAAGGTCAGAGGTGAGAGCAGAATGAG | -1.2
99 | CGCAGCGAATGGTCGCGCCGGGCGCCGCTC | -1.31
100 | CTCCTCTCCAGCCCATCCTAAGCCCCAGGG | 1.28

Row | Sequence | binding signal (log2 normalized intensity)
101 | ATCTTCATTTATAGATAAGCACACTAAGGC | -1.3
102 | ACAGAACCTTGTTTTGTCTTCTGTTTGCAA | 1.08
103 | CACTTGTAGGCCTGTGTGCATGGAGTGCAC | 0.798
104 | ATCTGGTCTTACTGATGGGCAAAGTTTTCA | 1.18
105 | GCAGAGGGACAACTGAGTTACGTAATGTGT | 0.932
106 | CATCCTCATTGCCTCTGGGCTTTGATGGAC | 1.28
107 | AGCTTAGTTTGCCACGGTCAGCAATGTGGA | 1.02
108 | ACTAAATTCTTGTCAATGACCCTAATGGGG | 3.01
109 | CGGCCTCTGGGAAATGTAGTTCCGGAGAAC | -1.31
110 | AGCTATGCCTGAGGCTGAGGTTGCCCAGGG | -1.12
111 | GCAATCATGCACCTGCGGATAATCAAAGGT | -1.24
112 | ACCTGTGTCCCCCAGGTCCAGCCTTTGGGC | 2.91
113 | CTTTTTCTGAGCCTGGGTCACCCCTATAAT | 2.35
114 | TCTAGACCTGGACTTGAAGCCAGACTCTGC | 0.717
115 | CCAGAACCTTGTGCAGTATCCCAGGGACTT | -1.28
116 | AGGGCTCTCTCACCAGAAAAATGTACATGT | 1.14
117 | TTTTTTCCGAACGCCAGCAGCAGGGTCAGA | 1.86
118 | TTCATGGGTGAAAGGGACTCATCTCCAAAC | -0.892
119 | ATCAAATACAGAATCAATGCCTGATTCCAA | -1.29
120 | GCTGGAACTCCTCCGGTCAAGATCAAGTGG | 0.349
121 | CTCTTGCTATGCCTTAGCAAACAGACTGGT | -1.15
122 | CAGCCCCAATGGCTAAGGTCACCATGACCA | 2.78
123 | ATTAGAGCAACCAGAATGTTCAAAAGTGTG | 0.135
124 | CTTTTCCTTATCATCACATGTGCAAGGGCA | 2.26
125 | CTTGCACTGTAAGATCAAGATTAAGAAGAG | -1.15

Row | Sequence | binding signal (log2 normalized intensity)
126 | GTCCCTGGCCAATCCCAGGGTCAGAGGTCG | 6.08
127 | CTTCCAATGAAAGGTTAACCTGCTGGTTTA | 1.52
128 | GATATTCCAAAAGGGCAGCAGTAACCCCCC | 4.8
129 | ATCATTCACGTGCCTGAGATTCCTTCAAAG | -1.21
130 | TAGAGATAAGGTAACAGGCCAAAGGGCAAG | 4.25
131 | GTGATAATAAATGTGTTTCATCAGTCCAAT | 1.76
132 | TCAAAGGTTAATGAGCCCCCTAAAAAGAAA | 3.5
133 | ACGACGCTCCTATCATCCCTATCACTCAAG | -0.97
134 | CCCAGGGACTTTGGCCTTACTTGGCCTGTT | 3.01
135 | AGGTAGTCCCTGCTCCACGCAAACACAAAA | -1.22
136 | TGGCAGGGGCGCGGCCTAATGCCTGGGAAA | -1.26
137 | CAGGATCTCAGCCGCGCGGCTTCAGAGGCC | -1.32
138 | CTGGCAGCACCTGAAGAATTTGGACTTTGC | 8.33
139 | CACATTGTTTTGGAGTTAGCTGTCTTTCTG | 0.91
140 | GAAGACCTTCAACTGATTAGATAAGGTTCA | 1.77
141 | TTTCACCTGGGGCCTTGGGCCACCTGAGAC | -0.738
142 | TAGGTGCTCTTGGCTAAGACAGGGGCTATT | -1.2
143 | TCAGACTGCTTCTCTGCTGGGGCCCTCACG | -1.29
144 | TTTTCCTTTGTTGGTTTTGCCCGAGGTCTG | 1.89
145 | CAGAGTAAACAGGTAAACAGCTGTGCCATG | -1.38
